Hit rate of the full screen: of about 39,000 compounds, about 220 (0.56%) showed activity. This is one part of the list.
What follows are compounds tested on Escherichia coli K-12 BW25113 (assay: relative growth (OD600 normalised to plate interquartile mean) (fraction); higher = less growth inhibition, active = 0.2 or less). Settings: 50 µM; LB; incubation time: overnight (16-24 h).
For `COC(=O)c1cn(C[C@@H](Cc2ccccc2)NC(=O)N[C@H](CO)CCc2oc(C(C)=O)c(C(=O)OC)c2C(=O)OC)nn1`, the relative growth was inactive: 1.01. For `C[C@@H]1CCCCO[C@H](CN(C)C(=O)C2CCCCC2)[C@@H](C)CN([C@@H](C)CO)C(=O)c2cc(NS(=O)(=O)c3cccs3)ccc2O1`, the relative growth was inactive: 0.998. With `CN(C)C(=O)C[C@H]1CC[C@@H](NC(=O)C2CC2)[C@@H](CO)O1` the relative growth was inactive: 0.993. `O=C(CN1CCOCC1)N[C@H]1CC[C@@H](CCNC(=O)C2CCC2)O[C@@H]1CO` was tested, and the relative growth was inactive: 0.984. With `CC[C@@H](C)C(=O)O[C@H]1[C@@H]2CC3=C4CC(=O)O[C@@H](c5ccoc5)[C@]4(C)CC[C@@H]3[C@@](C)(C2=O)[C@@H](CC(=O)OC)C1(C)C` the relative growth was inactive: 1.01. `C[C@@H]1CN([C@H](C)CO)C(=O)c2cc(NC(=O)Cc3ccccc3)ccc2O[C@@H]1CN(C)C(=O)Nc1cccc2ccccc12` was tested, and the relative growth was inactive: 0.982. In the case of `C/C=N/N(C)C=O`, the relative growth is reported as inactive: 1. With `NC1=CC(=O)c2ccccc2C1=O` the relative growth was inactive: 0.81. For `COCCOC(=O)N1C(=O)[C@@]2(c3cc(C#Cc4ccc(OC)cc4)ccc31)[C@H](C(N)=O)[C@H]1C(=O)O[C@H](c3ccccc3)[C@H](c3ccccc3)N1[C@@H]2c1ccccc1OCCO`, the relative growth was inactive: 1.09. For `O=C(Cc1ccccn1)NCC[C@@H]1CC[C@H](NC(=O)CN2CCOCC2)[C@@H](CO)O1`, the relative growth was inactive: 1.01. With `COc1ccc2c3c(n(c2c1)C)[C@H](CO)N(C[C@]13CN(C1)C(=O)C1CCOCC1)C(=O)C1CCOCC1` the relative growth was inactive: 0.906. `Cc1noc(C)c1S(=O)(=O)Nc1ccc2c(c1)C(=O)N([C@H](C)CO)C[C@H](C)[C@H](CN(C)S(=O)(=O)c1ccccc1)O2` was tested, and the relative growth was inactive: 0.99. For `O=C(Cc1ccncc1)NCC[C@@H]1CC[C@@H](NC(=O)C2CCOCC2)[C@H](CO)O1`, the relative growth was inactive: 1.01. In the case of `Cc1ccc(S(=O)(=O)N(C)C[C@@H]2Oc3ccc(NS(C)(=O)=O)cc3C(=O)N([C@@H](C)CO)C[C@H]2C)cc1`, the relative growth is reported as inactive: 0.982. For `Cc1ccc(S[C@H](C)C(=O)c2ccc(C)c(Cl)c2)cc1`, the relative growth was inactive: 0.959. With `C[C@@H]1CCCCO[C@@H](CN(C)C(=O)Cc2ccccc2)[C@@H](C)CN([C@H](C)CO)C(=O)c2cc(NC(=O)CCCCCC(=O)Nc3ccccc3N)ccc2O1` the relative growth was inactive: 0.938. `Cc1noc(C)c1S(=O)(=O)Nc1ccc2c(c1)C(=O)N([C@H](C)CO)C[C@H](C)[C@@H](CN(C)C)OCCCC[C@@H](C)O2` was tested, and the relative growth was inactive: 0.99. `Cc1noc(C)c1S(=O)(=O)Nc1ccc2c(c1)CC(=O)N([C@@H](C)CO)C[C@H](C)[C@H](CN(C)Cc1ccc(-c3ccccc3)cc1)O2` was tested, and the relative growth was inactive: 1.

Source: the supplement of paper PMC9446081
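Further: static incubation at 37 °C against the wild-type strain, values averaged over two biological replicates.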
